This note sets out measurements from paper PMC4336329 (PLoS ONE, 2015).

In all, about 310,000 compounds went through this assay and about 14,000 (4.5%) showed an effect of 50% or more. Effects have a minus sign here. The list shows a part of the results.
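Also: peak tail current of the secondary pulse compared with the same well before compound.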

Chain of human ether-à-go-go-related gene (hERG) potassium channel (Q12809 whole entry, looked up): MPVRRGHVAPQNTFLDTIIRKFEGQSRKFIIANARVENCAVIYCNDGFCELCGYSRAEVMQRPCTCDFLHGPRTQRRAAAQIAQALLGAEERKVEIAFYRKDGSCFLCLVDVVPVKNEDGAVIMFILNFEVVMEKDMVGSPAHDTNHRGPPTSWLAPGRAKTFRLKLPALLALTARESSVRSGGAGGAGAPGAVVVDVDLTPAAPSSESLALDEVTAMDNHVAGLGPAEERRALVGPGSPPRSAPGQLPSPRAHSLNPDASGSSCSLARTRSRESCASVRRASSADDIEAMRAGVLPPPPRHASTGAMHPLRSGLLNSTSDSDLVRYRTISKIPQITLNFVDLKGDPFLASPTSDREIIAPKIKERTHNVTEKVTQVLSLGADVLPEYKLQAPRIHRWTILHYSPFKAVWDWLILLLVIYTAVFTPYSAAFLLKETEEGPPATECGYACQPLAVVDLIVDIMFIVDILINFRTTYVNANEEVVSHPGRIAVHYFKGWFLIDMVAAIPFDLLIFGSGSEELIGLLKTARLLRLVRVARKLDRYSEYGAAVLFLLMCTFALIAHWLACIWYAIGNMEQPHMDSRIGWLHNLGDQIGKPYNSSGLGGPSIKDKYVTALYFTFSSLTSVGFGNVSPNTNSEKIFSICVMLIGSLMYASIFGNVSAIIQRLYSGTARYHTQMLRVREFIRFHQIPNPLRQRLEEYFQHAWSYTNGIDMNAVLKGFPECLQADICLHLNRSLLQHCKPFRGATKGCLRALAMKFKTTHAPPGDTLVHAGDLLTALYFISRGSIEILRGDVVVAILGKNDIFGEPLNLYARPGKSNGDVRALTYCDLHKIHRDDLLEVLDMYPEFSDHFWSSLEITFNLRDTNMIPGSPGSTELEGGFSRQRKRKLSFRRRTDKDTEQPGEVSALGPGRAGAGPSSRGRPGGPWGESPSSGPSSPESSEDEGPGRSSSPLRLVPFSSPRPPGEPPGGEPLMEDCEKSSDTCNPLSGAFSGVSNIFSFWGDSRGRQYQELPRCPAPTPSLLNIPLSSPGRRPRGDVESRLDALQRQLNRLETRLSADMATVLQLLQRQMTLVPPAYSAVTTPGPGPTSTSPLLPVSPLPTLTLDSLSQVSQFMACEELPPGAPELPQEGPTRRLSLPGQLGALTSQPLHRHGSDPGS

The test has as its target human ether-à-go-go-related gene (hERG) potassium channel (human, UniProt Q12809). Briefly: primary screen, population patch clamp on CHO cells stably expressing hERG.
Consider `O=S(=O)(NCCSc1nc2ccccc2o1)c1ccccc1`, for which the “hERG current change (%, negative = inhibition) at 10uM” value is listed as -5.31%.

Consider `c1ccc(C(Cc2nc(-c3ccccn3)no2)c2ccccc2)cc1`, for which the “hERG current change (%, negative = inhibition) at 10uM” value is reported as -2.55%.

As for `O=C(NNc1ncnc2c1cnn2-c1ccccc1)c1ccco1`, the “hERG current change (%, negative = inhibition) at 10uM” value is listed as -2.78%.

Regarding `Cc1cc2[nH]c(=O)c(=O)[nH]c2cc1S(=O)(=O)N1CCC(C)CC1`, the “hERG current change (%, negative = inhibition) at 10uM” value amounted to 7.98%.

Consider `Cc1cnc(CN2CCc3c([nH]c4ccccc34)C2C2CCCCC2)[nH]1` (stereo not drawn), for which the “hERG current change (%, negative = inhibition) at 10uM” value was -62.6%.

Consider `Cc1c(CC(=O)O)c(=O)oc2c(C)c(OCc3c(F)cccc3Cl)ccc12`, for which the “hERG current change (%, negative = inhibition) at 10uM” value came to 5.53%.

With `CCOC(=O)C(Cc1ccccc1)(Cc1ccccc1)C(C)=O`, the “hERG current change (%, negative = inhibition) at 10uM” value came to 2.28%.

As for `CCn1c(COc2cccc3cccnc23)nnc1SC(F)F`, the “hERG current change (%, negative = inhibition) at 10uM” value worked out at 5.28%.

For the compound `CC(=O)Nc1ccc(-n2cc(-c3ccccc3)[nH]c2=S)cc1`, the “hERG current change (%, negative = inhibition) at 10uM” value is given as 17.6%.

Turning to `CCN1C(=O)c2cccc3c(S(=O)(=O)NC(Cc4c[nH]c5ccccc45)C(=O)O)ccc1c23` (stereo not drawn), the “hERG current change (%, negative = inhibition) at 10uM” value worked out at 10.7%.

On to `Cn1c(CNC(=O)CNC(=O)Cc2ccccc2)cc(=O)n(C)c1=O`, for which the “hERG current change (%, negative = inhibition) at 10uM” value stood at 18.3%.

`COc1ccc(NC(=S)NNC(=O)C(C)n2nc(C)c([N+](=O)[O-])c2C)cc1` (stereo not drawn): the “hERG current change (%, negative = inhibition) at 10uM” value is 15.4%.

As for `CN1CCCN(C(=O)COc2ccc(Br)cc2)CC1`, the “hERG current change (%, negative = inhibition) at 10uM” value is reported as -17.3%.

As for `Cc1ccc(C(=O)CN(C(=O)c2ccc(Cl)cc2)N2C(=O)CCC2=O)cc1`, the “hERG current change (%, negative = inhibition) at 10uM” value is -50.7%.

On to `O=C(CCCCCn1c(=O)[nH]c2ccsc2c1=O)NCc1cccs1`, for which the “hERG current change (%, negative = inhibition) at 10uM” value is recorded as 13.8%.

With `Cc1noc(NS(=O)(=O)c2ccc(NC(=O)c3cnc4n(c3=O)CCS4)cc2)c1C`, the “hERG current change (%, negative = inhibition) at 10uM” value is on record as 4.59%.

Turning to `COc1cc2c(cc1OC)CN(C(=O)CSc1nc(N)c(C#N)cc1C#N)CC2`, the “hERG current change (%, negative = inhibition) at 10uM” value was -12.3%.

For `COc1ccc(N2CCN(C(=O)c3ccc(F)cc3)CC2)c([N+](=O)[O-])c1`, the “hERG current change (%, negative = inhibition) at 10uM” value is recorded as -70.1%.

On to `Cc1cccc(OCC(=O)Nc2ccc3c(c2)nc(CCN2CCC(C)CC2)n3C)c1`, for which the “hERG current change (%, negative = inhibition) at 10uM” value is recorded as -68.7%.

Consider `COc1ccc(C(=O)C(Cc2ccccc2)N(C)C)cc1` (stereo not drawn), for which the “hERG current change (%, negative = inhibition) at 10uM” value is listed as -24.1%.

For the compound `CCN1C/C(=C/c2cccc([N+](=O)[O-])c2)C(=O)/C(=C/c2cccc([N+](=O)[O-])c2)C1`, the “hERG current change (%, negative = inhibition) at 10uM” value is -37.3%.

With `Cc1nc(SCC(=O)Nc2cc(C)on2)c2c(C)c(C)sc2n1`, the “hERG current change (%, negative = inhibition) at 10uM” value is 8.58%.

`CC(Oc1cccnc1[N+](=O)[O-])C(=O)Nc1cccc(Cl)c1` (stereo not drawn): the “hERG current change (%, negative = inhibition) at 10uM” value is listed as -9.19%.

In the case of `CC1Sc2ccc(C(=O)NCc3ccccn3)cc2NC1=O` (stereo not drawn), the “hERG current change (%, negative = inhibition) at 10uM” value was found to be 8.19%.
